Source: the BET-seq Pho4 binding data (Le et al. 2018)
The other results are listed elsewhere or left out. These are noisy estimates, calculated here from bound and input reads.

biological target: T1, Pho4 (S. cerevisiae) (UniProt P07270); test: relative binding free energy (BET-seq); higher = weaker binding; settings: reference: library average
T1 sequence: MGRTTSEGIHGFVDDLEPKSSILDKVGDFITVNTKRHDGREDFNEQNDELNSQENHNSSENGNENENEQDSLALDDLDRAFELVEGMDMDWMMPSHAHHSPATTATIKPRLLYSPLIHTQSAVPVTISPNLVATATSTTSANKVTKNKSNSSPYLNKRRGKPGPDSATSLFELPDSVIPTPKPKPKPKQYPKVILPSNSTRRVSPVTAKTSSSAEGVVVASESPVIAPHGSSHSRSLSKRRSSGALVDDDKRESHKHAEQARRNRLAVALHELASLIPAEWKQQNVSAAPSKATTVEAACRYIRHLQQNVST

Sequence | relative binding free energy [kcal/mol]
ATGGGCACGTGGTTCG | -0.16
TTTTTCACGTGAATTC | 0.38
ATGTTCACGTGCTTAA | 0.12
GTTCGCACGTGTGTGC | -0.08
TATCGCACGTGAATTT | 0.32
TGTTGCACGTGATGTA | 0.16
GTTTTCACGTGTTGAG | 0.22
AGTTGCACGTGCGATG | -0.15
TGCGACACGTGTTGGA | 0.1
TTGCGCACGTGGCTGT | -0.26
TGGGGCACGTGTGCAA | -0.03
AAGGACACGTGTGAGG | 0.13
GATGACACGTGGGGAT | 0
GAAAGCACGTGAGGTT | 0.3
GCAATCACGTGTGGTG | 0.26
ACGAACACGTGTTGGG | 0.06
TGAGTCACGTGGGGGT | 0
TAGGACACGTGCGATT | 0.14
GGGGGCACGTGCAGAT | -0.1
CGAGGCACGTGTGTGG | -0.04
AACATCACGTGGTGGT | -0.02

Sequence | relative binding free energy [kcal/mol]
TAGGGCACGTGCATGT | -0.11
GTGCACACGTGTATGT | 0.02
CAGCACACGTGTGGTA | 0.22
CGGTACACGTGGATTG | -0.01
AGTTGCACGTGGGCGA | -0.06
AACGGCACGTGAGGGG | 0.04
GGGCGCACGTGTGATG | 0.05
GGATACACGTGTGTGT | 0.06
AAAGGCACGTGCTTGG | -0.11
AATATCACGTGTTAGG | 0.19
TGGAGCACGTGTAAGT | -0.06
AGAGTCACGTGAGAGG | 0.34
GTATTCACGTGGCATG | 0.27
CGTTTCACGTGTAGAG | 0.21
TATGGCACGTGTACAT | 0.03
TTATACACGTGATAGT | 0.14
GGTGGCACGTGGCAGC | -0.24
AAGTCCACGTGTGGTT | 0.05
CGTTGCACGTGTTGCG | 0.03
CGTTTCACGTGACGTG | 0.2
TAAATCACGTGTTGTA | -0.02

Sequence | relative binding free energy [kcal/mol]
AAAGTCACGTGGAGAG | 0.08
CTGTTCACGTGAAGGG | 0.52
ACTAGCACGTGGAGGG | -0.06
TGTGACACGTGGGGAT | -0.12
GGGTGCACGTGTTTTT | 0.15
GTCGGCACGTGGGGAG | -0.26
ATCTGCACGTGCGTGG | -0.15
TTGATCACGTGGACTG | 0.05
GTCTTCACGTGATATT | 0.36
AGGGACACGTGAATTG | 0.28
GTGGGCACGTGGTACC | -0.08
TAGTTCACGTGGGGCG | 0.16
AACTACACGTGGGGGT | 0
TTTAACACGTGTAGTA | -0.05
ATTTCCACGTGGGGTT | -0.07
TTCTTCACGTGGGTGT | 0.18
ACGTGCACGTGTGCTG | -0.09
GCGAGCACGTGGGTGC | -0.16
TGACTCACGTGAAGTG | 0.34
TTTGCCACGTGGCGTA | -0.07
GTACTCACGTGGTGGG | 0.06
